The results in this text go back to PubChem BioAssay AID1963576 (National Center for Advancing Translational Sciences (NCATS), 2024).

Out of some 46,000 compounds screened, about 60 (0.1%) were called active. About 3% were inconclusive and are not listed. The call rests on the fitted dose curve; in most records, active means well fitted inhibition curve with a large enough effect; inconclusive means small, poorly fitted or top-dose-only effect; inactive means no such curve, though single readings can be large or run the other way. Some of the results follow.

The test can be described thus: Primary qHTS assay for Inhibitors of ovarian cancer metastasis using an organotypic tumor microenvironment (TME) model. Further: nearly all actives have a fitted effect of over 65% in size.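 On activity change, negative = inhibition: plate controls were DMSO wells for no effect and tomatine positive control wells for full effect.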 The following applies: SKOV3ip1-GFP adhesion/invasion on 3D omental model, fluorescence; series mostly up to 45.8 µM; activity change, negative = inhibition: at the top concentration. Put shortly:
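A 3D layer of primary human omental fibroblasts, mesothelial cells, fibronectin and collagen I, grown 48 hr, received SKOV3ip1-GFP cells in serum-free medium plus compounds at 0.36-46 umol/L. After 2 hr RT and 16 hr 37 C, fixed adherent GFP cells were counted; normalized to DMSO and tomatine.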
(In general: qHTS replaces the single test concentration by a dilution series.)
Turning to `Cc1ccccc1Cn1c(SCc2ccc(C(=O)NC(C)c3ccccc3)cc2)nc2ccncc21` (centres undefined), the “activity change, negative = inhibition” value was inactive: 9%.
Still for that read-out and setting: next, `CCOC(=O)c1ccccc1NC(=O)Cn1ncc2c([nH]c3ccccc32)c1=O`: inactive: -1.12%; `COc1cccc(C2CC(=O)Nc3cc4c(cc32)OCCO4)c1OC` (centres undefined): inactive: -9.85%.
The same measure, in the same setting: next, `CCc1ccccc1NC(=O)CCn1nc(C)c2c(C)n(-c3ccccc3)nc2c1=O`: inactive: 3.72%; `CCCCC(C)(C)[C@H](O)C=C[C@H]1[C@H](O)CC(=O)[C@H]1CC=CCCCC(=O)O`: inactive: -15.4%; `CCc1ccc(-c2nc(CN3CCC(C(=O)NCCc4ccc(Cl)cc4)CC3)c(C)o2)cc1`: inactive: 4.55%.
For the compound `COc1cccc(NC(=O)c2sc3nc(C)c(C(=O)Nc4ccc(C)cc4C)c(-c4ccccc4Cl)c3c2N)c1`, the compound was called inactive.
Take `COC(=O)C1=C(c2ccccc2)c2ccccc2S(=O)(=O)N1CC(=O)Nc1cccc(C(C)=O)c1`: the “activity change, negative = inhibition” value is inactive: 9.85%.
Same read-out and setting: next, `Cc1ccc(CCNC(=O)c2ccc(NC(=O)N3CC(C)Sc4ccccc43)cc2)cc1` (centres undefined): inactive: -6.61%.
`CC1(C)O[C@H]2CC(=O)OC[C@]23[C@H]2CC[C@@]4(C)[C@H](c5ccoc5)OC(=O)[C@H]5O[C@]54[C@]2(C)C(=O)C[C@@H]13`: the “activity change, negative = inhibition” value is inactive: 1.77%.
Same read-out and setting: next, `O=C1CSC(=O)N1C(CCc1ccncc1)COc1ccc(-c2cccc([N+](=O)[O-])c2)cc1` (centres undefined): inactive: -0.889%.
On the same count and under the same terms, next, `CCc1ccc(OCC(=O)N(Cc2ccco2)Cc2ccccc2Cl)cc1`: inactive: -6.62%; `CC1=C(C(=O)Nc2ccccc2)C(c2ccc(C(=O)O)cc2)n2ncnc2N1` (centres undefined): inactive: 4.18%.
On the same count and under the same terms, next, `CCOc1ccc(Nc2nc3c(S(=O)(=O)c4cccc(Cl)c4)nnn3c3ccsc23)cc1`: inactive: 1.75%; `CCOc1ccc(NC(=O)c2cnn(-c3ccc(C)c(C)c3)c2C2CCN(C(=O)OC(C)(C)C)CC2)cc1`: inactive: 5.58%.
Regarding `COc1ccccc1N1CCN(C(=O)c2cn(C)c3ccc(S(=O)(=O)N(C)C4CCCCC4)cc3c2=O)CC1`, the “activity change, negative = inhibition” value was inactive: -1.84%.
As to `CCc1noc(-c2ccc(NCc3ccccc3)c([N+](=O)[O-])c2)n1`, the outcome was inactive.
As to `Cc1ccc(C(=O)NCC(c2ccc3c(c2)OCO3)N2CCN(C)CC2)cc1C` (centres undefined), the “activity change, negative = inhibition” value was inactive: 1.38%.
As for `Cc1ccc(NC(=O)CCCn2c(=O)c3cccn3c3ccccc32)c(C)c1`, the result was inactive.
Turning to `CCOC(=O)c1cnc2c(ccc3ccccc32)c1Nc1cccc(C(F)(F)F)c1`, the “activity change, negative = inhibition” value is inactive: 2.82%.
Turning to `Cc1cc(C(F)F)n2nc(C(=O)Nc3cccc(Cl)c3C)nc2n1`, the “activity change, negative = inhibition” value is inactive: -7.07%.
Still for that read-out and setting: next, `Cc1ccccc1OCC(=O)Nc1ccccc1C(=O)OCc1cc(=O)n2ccsc2n1`: inactive: -5.41%; `Cc1nn(CCCC(=O)NCCc2ccc(Cl)cc2)c(=O)c2c1sc1ccccc12`: inactive: 4.52%.
On the same count and under the same terms, to `CCOc1cc(C(=O)NCCc2csc3nc(-c4ccccc4F)nn23)cc(OCC)c1OCC` belongs inactive: 1.32%.
Consider `COc1ccc(F)cc1S(=O)(=O)NCC(c1ccco1)S(=O)(=O)c1ccc(F)cc1` (centres undefined), for which the compound was classed as inactive.
On the same count and under the same terms, to `COc1ccc(Cn2c(C(=O)O)c(CNCCc3ccco3)c3ccc(C)cc32)cc1` belongs “inactive”.
On to `N=c1c(C(=O)NCC2CCCO2)cc2c(=O)n3ccccc3nc2n1CCCO` (centres undefined), for which the “activity change, negative = inhibition” value was inactive: 14.8%.
Same read-out and setting: next, `CCOc1ccc(CNC(=O)C2CCN(S(=O)(=O)c3cn(C)cn3)CC2)cc1`: inactive: 14.3%; `O=C(CN1C(=O)CCn2nc(-c3ccccc3)cc21)NCc1ccc(F)cc1`: inactive: 0.697%; `O=C(Nc1ccc(-n2nncc2-c2ccccc2)cc1)c1cccc(F)c1`: inactive: 1.37%.
Same read-out and setting: to `Cn1ncc2c(NCc3ccccc3Cl)nc(NCCO)nc21` belongs inactive: 3.5%; to `COc1ccc2c(c1)c1c(c(=O)n(-c3ccccc3)c(=O)n1CC(=O)NCCC1=CCCCC1)n2C`, inactive: 5.67%; to `COc1cc(CN2CCc3nc(N4CCN(c5ncccn5)CC4)ncc3C2)cc(OC)c1OC`, inactive: 14.4%.
Turning to `Cc1ccccc1N(C)S(=O)(=O)c1nnc(NC(=O)c2ccccc2F)s1`, the outcome was inactive.
On to `Cn1nc(C(=O)NCc2cccc(Cl)c2)c2c1-c1ccccc1S(=O)(=O)C2`, for which the “activity change, negative = inhibition” value is inactive: 9.68%.
Take `Cc1nc2ccccc2n2c(-c3ccccc3)c3c(=O)n(C)c(=O)n(C)c3c12`: the “activity change, negative = inhibition” value is inactive: 3.73%.
Take `CCOC(=O)Cn1c(=O)n(C2CCCCC2)c2nc(-c3ccc(CC)cc3)nc(C(N)=O)c21`: the compound was called inactive.
Same read-out and setting: to `CN(c1ccccc1)S(=O)(=O)c1nnc(NC(=O)C2CCCCC2)s1` belongs “inactive”.
Consider `COc1cccc(CNC(=O)CCn2nc(C)c3c(C)n(-c4ccccc4)nc3c2=O)c1`, for which the “activity change, negative = inhibition” value was inactive: -3.98%.
On the same count and under the same terms, next, `Cc1c(Cl)cccc1NC(=O)CCS(=O)(=O)c1ccc2c(c1)oc(=O)n2C`: inactive: 0.828%.
`Cc1ccc(S(=O)(=O)NCCc2csc(-c3ccc(Cl)cc3)n2)cc1`: the compound was classed as inactive.
As for `COc1cccc(Cn2c(CNC(=O)CCc3ccccc3)nc3cccnc32)c1`, the “activity change, negative = inhibition” value was inactive: -0.346%.
On the same count and under the same terms, to `Cc1ccc(NC(=O)C(=O)NCCc2sc(-c3ccc(Cl)cc3)nc2C)cc1C` belongs inactive: -13.7%.
In the case of `O=C(CSc1nc2ccccc2nc1Cc1ccc(Cl)cc1)N1CCCc2ccccc21`, the compound was classed as inactive.
Same read-out and setting: next, `COc1ccc(NCc2cc3cc4c(cc3n(CC(=O)Nc3ccc(F)cc3)c2=O)OCCO4)cc1`: “inactive”.
The same measure, in the same setting: next, `CCOC(=O)c1c(C)c(C(=O)NCc2ccc(OC)cc2)c(C)n1CC`: “inactive”.
In the case of `COc1cccc(C(=O)N(Cc2cccnc2)c2nc3c(OC)ccc(C)c3s2)c1OC`, the “activity change, negative = inhibition” value was inactive: 26.8%.
The same measure, in the same setting: to `CCOc1ccccc1NS(=O)(=O)c1ccc2c(c1)CC(C)N2C(=O)C1CCC1` (centres undefined) belongs inactive: 2.3%; to `CCOc1cc(C2CC(=O)Nc3cc4c(cc32)OCCO4)ccc1O` (centres undefined), inactive: -2.26%; to `COC(=O)C(C)Sc1nc2c(cnn2-c2ccc(F)cc2)c(=O)[nH]1` (centres undefined), inactive: -4.91%.
For the compound `COc1cccc(C(=O)NCc2cn3ccccc3n2)c1`, the compound was called inactive.
The same measure, in the same setting: to `Cc1ccc2c(=O)cc(C(=O)Nc3ccc(S(=O)(=O)N(C)Cc4ccccc4)cc3)oc2c1C` belongs “inactive”; to `O=C(NCCCO)C(=O)NCC(c1ccc2c(c1)OCO2)N1CCOCC1` (centres undefined), “inactive”.
As to `CCOc1ccc(OCC)c(NS(=O)(=O)c2c(C(=O)N3CCCCCC3)c(C)n(C)c2C)c1`, the “activity change, negative = inhibition” value was inactive: 5.15%.
For `O=C(CSc1nnc(-c2ccccc2)c(-c2ccccc2)n1)NC1CCCC1`, the “activity change, negative = inhibition” value was inactive: 3.13%.
On to `CCOc1ccc(C(=O)c2cn(CC(=O)Nc3ccc(F)cc3)c3cc4c(cc3c2=O)OCCO4)cc1`, for which the call was inactive.
Regarding `Fc1ccc(-n2cc(-c3ccccc3)c3c(NCCc4ccccc4)ncnc32)cc1`, the “activity change, negative = inhibition” value was inactive: -15.7%.
Take `COc1ccc(C)cc1NC(=O)C1COc2ccccc2C1` (centres undefined): the “activity change, negative = inhibition” value is inactive: 6.17%.
Regarding `CCc1ccc(NC(=O)Cn2c(=O)n(CCCCC(=O)NCCc3ccccc3)c(=O)c3ccccc32)cc1`, the compound was called inactive.
